Assay results published in PubChem BioAssay AID897 (National Center for Advancing Translational Sciences (NCATS), 2007).
The list shows a part of the results. Shown are side measurements of this screen, not its main read-out; they come without a call. The list favours compounds with an active or inconclusive main result. The note in brackets gives the kind of curve behind each potency; many fits are weak.

These compounds were tested against Caspase-7 (Homo sapiens) (UniProt P55210) (assay: Confirmation Concentration-Response Assay for Allosteric/Competitive Inhibitors of Caspase-7). Conditions: recombinant caspase-7, fluorogenic substrate cleavage; measured here: rate read AC50.
UniProt P55210, sequence (P55210 whole entry, looked up): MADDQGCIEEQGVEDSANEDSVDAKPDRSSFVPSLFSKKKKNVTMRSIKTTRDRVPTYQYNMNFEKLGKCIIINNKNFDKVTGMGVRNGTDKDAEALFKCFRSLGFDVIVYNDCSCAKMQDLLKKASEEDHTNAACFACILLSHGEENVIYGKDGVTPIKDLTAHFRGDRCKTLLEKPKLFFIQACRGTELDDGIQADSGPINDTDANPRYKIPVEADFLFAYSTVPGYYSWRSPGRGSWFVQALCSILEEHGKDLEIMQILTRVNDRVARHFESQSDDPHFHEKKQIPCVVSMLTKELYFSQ
Text: NIH Molecular Libraries Screening Centers Network [MLSCN]
NIH Chemical Genomics Center [NCGC]
PI Name: Dr. James Wells,
Dr. Enrique Perez-Paya, Dr.Janice Williams, Dr. Dennis Wolan, a person
The caspases (Cysteine Aspartyl Protease) comprise a related family of 14 dimeric proteases that are critical mediators of apoptosis (programmed cell death) and inflammation. The caspases represent an important class of drug targets for stroke, ischemia, cancer and inflammatory diseases. […] One goal of this project was to identify compounds that act as allosteric inhibitors via stabilizing the procaspase form of the enzyme. Previous work in Well's laboratory has shown that such allosteric inhibitors can be identified and these act by binding at the dimer interface of enzyme (Hardy, Lam et al., 2004).
The biochemical assay was configured using purified caspase 7 at a high enzyme concentration to promote formation of the homodimers and thus facilitate the identification of allosteric inhibitors. The overall goal was to identify reversible inhibitors with better drug-like properties than the currently available set of aspartyl-containing peptidomimetics that covalently bind the active site. Caspase 7 was assayed using the profluorescent substrate Ac-DEVD-AFC. After initiation of the assay with substrate the plates were rapidly read using an automated robotic system (Kalypsys, Inc.) to maintain consistent timing. A kinetic mode of detection was used where the initial rate was collected (estimated final product formation was ~10%). Compounds were screened as a concentration-titration series that ranged from 57 uM to 0.7 nM. Below is the protocol used for caspase 7.
NCGC Assay Protocol Summary:
Caspase 7 was prepared in buffer (50 mM HEPES pH 7.5, 50 mM KCl, 200 mM NaCl, 10 mM DTT, 0.1% CHAPS) at a concentration of 66.6 nM and 3 uL was dispensed to all wells using black solid Kalypsys 1536-well plates. 20 nL of DMSO containing compounds was added using a pin-tool (Kalypsys Inc.) to columns 5-48. Then 20 nL of DMSO solution from a control plate was added to columns 1-4. […] The plates were then exposed using 405 nm excitation/520 nm emission filters for 4 sec and read at 20 sec intervals for 3 min. […]
Concentration-response curves were fitted to the data calculated from slope of the linear regression of fluorescent intensity versus time (the rate). The concentration-effect curves were then classified based on curve quality (r2), response magnitude and degree of measured activity. […] Inconclusive compounds had appreciable concentration-dependent effects on both the measured rate and the interpolated basal fluorescence intensity at the start of the reaction but where the basal fluorescent intensity was marginal (e.g. < 10-fold). […]

SMILES | AC50
CCn1nc(-c2cccs2)nc2c(=O)n(C)c(=O)nc1-2 | 0.631 µM [falling, full curve]
CCn1nc(-c2ccccc2)nc2c(=O)n(C)c(=O)nc1-2 | 1.58 µM [falling, full curve]
Cn1ncnc2c(=O)n(C)c(=O)nc1-2 | 3.98 µM [falling, full curve]
C[C@]12Cc3cn4c(nc3C=C1CC[C@H]1[C@@H]2CC[C@@]2(C)[C@H]1CC[C@@]2(O)C#N)nc1ccccc14 | 7.94 µM [falling, full curve]
